± gives the standard deviation of the averaged measurements. The list shows a part of the results.

This assay has as its system PfAP2-EXP AP2 domain (GST-tagged). Briefly: gcPBM binding intensity (ln(normalized median fluorescence intensity)); higher = stronger DNA binding. The essentials:
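The binding buffer was 1× PBS containing 1% milk, 0.2 mg/ml BSA, 0.5% salmon testes DNA and 0.03% Triton X-100. In it, GST-tagged P. falciparum DNA-binding domains expressed in E. coli were applied for 1 h to an Agilent 4 × 180k array of primer-extended double-stranded 36-bp intergenic genomic probes plus negative controls. Binding intensity, read with Alexa488 anti-GST antibody and a 488 nm scan, is the highest Masliner-normalised natural-log median intensity across replicate spots of either probe orientation.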
Consider “AAGAAAAAATATACTTCACACATTTAATATATAATT [CACACA_site4919]”, for which the “gcPBM binding intensity (ln)” value stood at 8.22 ± 0.41. Under “AAAAAAAAAAAAAAATGTACAAATATATACATATAT [XGTACX_site935]” stands 8.21 ± 0.21; under “TAAAATATTTTTTGTAGTACCTTAATATTTTTGAAG [XGTACX_site3048]”, 8.48 ± 0.34.

With “GTGTAATATGAAATGTGTACACACGCACACACAAAA [XGTACX_site6180]”, the “gcPBM binding intensity (ln)” value is 8.88 ± 0.2. Next, “TAAATATAATCTAAATGTACATGACATAATTTTTTT [XGTACX_site2856]”: 8.05 ± 0.32.

With AATAAATACTAAATGGTGCAAAATTTTTTAACACTG, the “gcPBM binding intensity (ln)” value was 8.57 ± 0.18. Under “TTTCAAAAATGAGTTACACACACACCGATATATATA [CACACA_site5263]” stands 8.79 ± 0.61; under “AGCCACCATATTTACACACACATCAAAATGTATTAA [CACACA_site1816]”, 8.71 ± 0.4.

Regarding “TATATATATTATAGATGTACTTTCATATATATGTTT [XGTACX_site8189]”, the “gcPBM binding intensity (ln)” value was determined as 8.57 ± 0.099.

As to “ATAGTATCTGGTAGCTGTACGAGTCGTAGAGTCTAA [XGTACX_site2539]”, the “gcPBM binding intensity (ln)” value turned out to be 8.51 ± 0.47.

As for “ATATACAATACAAAAACACACACAAAAAAAGAAAAG [CACACA_site8668]”, the “gcPBM binding intensity (ln)” value was found to be 8.8 ± 0.54. Under “ATGTATATTTTTAAAAGTACAGAATTTTCATATGAA [XGTACX_site5754]” stands 8.59 ± 0.55.

Turning to “TATTTATTTATGTACGCACACAGTTGATATTAATTC [CACACA_site2754]”, the “gcPBM binding intensity (ln)” value is 8.81 ± 0.33. Under “GAAAAAGATGCGCATACACACAGATGAATAACAAAA [CACACA_site1628]” stands 8.94 ± 0.59. With “ATATATATATATATATGTACATAATTAATAGCATAT [XGTACX_site1428]”, the “gcPBM binding intensity (ln)” value was 10.2 ± 0.36. Under “ATCATATTTATGTTGGTGCATTATACATAAAGTTTA [GTGCAC_site9574]” stands 9.39 ± 0.68; under “TATATAATAAGAAAATATGTGCGTAGTTCAGCAAAA [XGTACX_negctrl_site304]”, 8.69 ± 0.39; under “AAAATAAGAAAACAAATGCACACCATTTATATAGAT [CACACA_site1055]”, 8.7 ± 0.26. Under “AATTGGATAAACCAATTGGATTATAATACGATATAT [CACACA_negctrl_site275]” stands 8.52 ± 0.35. Next, GAAAAATATATTCTGGTGCATGAATAAAATCATAAA: 8.51 ± 0.16; “CACAAAAAAAATTATACACACACACCCATATATATA [CACACA_site8255]”: 8.77 ± 0.24; “ATAATTGTTTCTTTCTCCTTTTTATTTCATTTTAAA [CACACA_negctrl_site964]”: 8.86 ± 0.52.

Turning to “AAAGGATATATCCAGAGTACATATTCTGTGTAATAC [XGTACX_site1547]”, the “gcPBM binding intensity (ln)” value amounted to 8.7 ± 0.29. Under “TATTCATCACTTTTTTGTACTTATGGATAAAATTTT [XGTACX_site3349]” stands 8.79 ± 0.42; under “TGTCTTATTTATATTACACACTATATGAAAAAATAT [CACACA_site6807]”, 8.59 ± 0.45; under “TTAATATGAAAACTCTGTACCCAACCTTCTTATGGA [XGTACX_site2126]”, 8.39 ± 0.4. Next, “TATATAAATATATAATGTACGTTTTAAAAATAATAT [XGTACX_site3881]”: 8.71 ± 0.42; “ATATATTAATATGTGTGTACTTAACCATTCATATGT [XGTACX_site7395]”: 8.68 ± 0.42.

Regarding “TTAATATATAATAAATTTTTTTTTTTTTTTTTTTTT [CACACA_negctrl_site892]”, the “gcPBM binding intensity (ln)” value was 8.945 ± 0.021. Under “CTTGGTAGTTTTTTCTTATAATCTAATTATTAATAA [CACACA_negctrl_site153]” stands 8.49 ± 0.42; under “TTTTAATAATATGGATGTACATAAAAATAAATAAAT [XGTACX_site7937]”, 9.04 ± 0.38. Under “TTAACCACTAAAAGTACACACATATATACCTATATA [CACACA_site6026]” stands 8.45 ± 0.28. Turning to “ATATAATAAATGTAGGTGCATAAAAATATTTTGTTA [GTGCAC_site9780]”, the “gcPBM binding intensity (ln)” value was found to be 8.82 ± 0.33.

Regarding “TAGTATTATTTTTTTTGTACATATAAATGTAAAATA [XGTACX_site5282]”, the “gcPBM binding intensity (ln)” value worked out at 8.34 ± 0.27. Next, “TTTTTTTAAAATATGAGTACATAATATTGTAAAAAT [XGTACX_site6536]”: 8.36 ± 0.37. Under “AAAACATAAATACATACACACATAATATATATTAAG [CACACA_site4239]” stands 8.59 ± 0.51; under “ATACATATACACATTTGTACATATTCCTTTTTATCG [XGTACX_site1731]”, 8.79 ± 0.29.

Consider “TCTTGTTTTAATTTTTATATTATTATTTAGATATAT [CACACA_negctrl_site921]”, for which the “gcPBM binding intensity (ln)” value was 8.56 ± 0.37. For the sequence “TTATTTAAAATGAAAAGTACATATTACTTTCTCACA [XGTACX_site5043]”, the “gcPBM binding intensity (ln)” value amounted to 8.21 ± 0.16. Next, “TACTAAATGATCATATGTACACATGTTTACTTTTTA [XGTACX_site1253]”: 8.79 ± 0.57. Under “AATATATATATATATATATATATTTCAATATATAAA [XGTACX_negctrl_site187]” stands 8.56 ± 0.092; under “ATGATAATTATTAAGGGTACATAAAAATATATCTAT [XGTACX_site8969]”, 8.4 ± 0.33; under “ATTATTTAACATGTGGACACAAAAATTTAAGGGTTC [CACACA_negctrl_site1269]”, 8.75 ± 0.4. Under “TATAATTATTTTTTCACACATATGTATTTATATATA [CACACA_site4205]” stands 8.88 ± 0.43; under “AGATATATATATAGGTGTACTGGAATGAAATTGTTT [XGTACX_site8200]”, 8.78 ± 0.37. Turning to “AATATATTAAATATTACACACATACATTTAGTGGAA [CACACA_site8609]”, the “gcPBM binding intensity (ln)” value is 8.18 ± 0.34. Under “TACTAAGAAAAGAACTGTACATAGAATATACCCAAG [XGTACX_site4757]” stands 8.56 ± 0.35.

On to “AATATCAAAAAAAAAAAAAAAAAAAAAAAAAAAAAA [CACACA_negctrl_site288]”, for which the “gcPBM binding intensity (ln)” value was found to be 8.09 ± 0.3.

As for “AAGGGAAAAAAAAAAGCACACATACGTAAATATATA [CACACA_site7960]”, the “gcPBM binding intensity (ln)” value amounted to 8.63 ± 0.61. Next, “TATTTCACACAGTATATATATATATATATATATATA [TGCATGCA_negctrl_site118]”: 10.2 ± 0.38; “AAAAGATAAAATTATGCACACATACGAATAATTTTA [CACACA_site8497]”: 8.54 ± 0.44; “AAATGGGAAATTTCATGTACTCATTTACCCTTATTA [XGTACX_site4740]”: 8.22 ± 0.42. Turning to “ATCTGACAAAAGTGTACACATATATATATATATATA [CACACA_site4814]”, the “gcPBM binding intensity (ln)” value came to 10.2 ± 0.61. Next, “CACATAATGAAAAATACACACATGTATATTTATAAA [CACACA_site2736]”: 8.36 ± 0.39.

Turning to “TTGAAGTATAATAAAGTGCAAAATTATAATGATCTT [GTGCAC_site9639]”, the “gcPBM binding intensity (ln)” value worked out at 8.77 ± 0.41.

Take GTTAATTTTTGTATAGTGCAAAAATATAATAGTATG: the “gcPBM binding intensity (ln)” value was 8.945 ± 0.049.

Turning to “TGTTGGTATGTGAATGCATGCATATAAGTCTATCTG [TGCATGCA_site780]”, the “gcPBM binding intensity (ln)” value was 9.98 ± 0.099. Take “TGGATATATGTAAAAATTGCAAGAAAGATAAAAGGA [CACACA_negctrl_site64]”: the “gcPBM binding intensity (ln)” value came to 9.22 ± 0.44. Under “TCTATGAATTAATATGCATGTAACGTATTTATACTT [TGCATGCA_site669]” stands 8.79 ± 0.33. Next, “ATTATGATATATATATGTACATATATATAATATAAT [XGTACX_site259]”: 8.46 ± 0.33; “TTTTATATATATTATACACACAAGGAAAAAAAAAAA [CACACA_site3677]”: 8.69 ± 0.44. Next, “TTTTTTTTTTTCCTTACACACATATTTCATTTTATA [CACACA_site747]”: 8.73 ± 0.37; “TTTTTATTTTTTAGTAGTACACACTTTTTGAACCTT [XGTACX_site1091]”: 8.79 ± 0.28; “AAAAAAAAAAAAAGTGCACACTTTTAATATAAATAT [CACACA_site3314]”: 8.635 ± 0.035. Consider “TATAAAAGGAAACACACACACATATATATATATATA [CACACA_site939]”, for which the “gcPBM binding intensity (ln)” value came to 10.2 ± 0.4.

Turning to “TTATAATATAAAAAATGTACATTAAAAAAAAAGATT [XGTACX_site8950]”, the “gcPBM binding intensity (ln)” value worked out at 8.9 ± 0.4. Next, “AAGTATCAAAAATAAAGTACATATTTTGTAGGCAGG [XGTACX_site1463]”: 8.92 ± 0.28; “CAAAAAATATATTTTTGTACTTATGTTTTTATTTTG [XGTACX_site5230]”: 8.58 ± 0.31; “TAGTATAATATGAACACACACACACCCACAAAAAAA [CACACA_site2009]”: 8.93 ± 0.58. For “GTACAAAAAAAAATAAAATACATATATATATATATA [GTGCAC_negctrl_site364]”, the “gcPBM binding intensity (ln)” value is 10.1 ± 0.41.

Turning to “GAATATATAAGATACACACACAAATTAAATATAAAA [CACACA_site2781]”, the “gcPBM binding intensity (ln)” value was 8.82 ± 0.32. Next, “TATTATATATATGTTGACATATTTGTACACTCCACT [TGCATGCA_negctrl_site200]”: 8.79 ± 0.61; “AAAATATTTCATATATGTACTTAAAAAAAAAAAAAA [XGTACX_site5399]”: 8.27 ± 0.38.

As to “AAAAAATTCATATATACACACACGCACATATATATA [CACACA_site4226]”, the “gcPBM binding intensity (ln)” value was 8.66 ± 0.27. Under “CACTTTTCTGGAAAAATTCCCACATTTTTTTATTAA [GTGCAC_negctrl_site322]” stands 8.48 ± 0.44; under “AAAAAAAAAAAAAACACACACACACGCATAAATATA [CACACA_site6217]”, 8.69 ± 0.55; under “TTATGTAAAAAAAAAAAAAAAAAAAAAAAAAAAAAA [CACACA_negctrl_site984]”, 8.02 ± 0.36. Under “TCTTCATATAAGAACACATGCAGATTTTTATTATTG [TGCATGCA_site682]” stands 8.73 ± 0.18; under “GATAAAGTACTTTATACACACAAATATTTATTTATA [CACACA_site7795]”, 8.61 ± 0.37; under “AAAAAAAAAAAAAAACGTACACATATTATGTTATTT [XGTACX_site5264]”, 8.645 ± 0.049. Under “CATATAATATAATTATGTACATATATAATAATATAC [XGTACX_site5278]” stands 8.47 ± 0.29; under “AAAAAAAAGTTGTATTGTACAAAAAAAAAAAAAAAA [XGTACX_site8334]”, 8.35 ± 0.5. Consider “TCATAAAAACTAATACGTACTTAAAAATATGAACTT [XGTACX_site2939]”, for which the “gcPBM binding intensity (ln)” value came out at 8.61 ± 0.48. Next, “AATCCCCACTTGTCAAGTACATATATCATGGATGAA [XGTACX_site3486]”: 8.73 ± 0.52; “GCCAAAATCTAATTTACACACTTATTAAATAATTAC [CACACA_site6251]”: 8.38 ± 0.38. Next, “TATTTATAACAAAGGTTAAATTAAAACTAATCCACA [TGCATGCA_negctrl_site3]”: 8.15 ± 0.31; “GACATAGTCATATACTGTACTTTATATTATTGTGTA [XGTACX_site6636]”: 8.35 ± 0.3. In the case of “TTTTTTTTTTTTTTTTGTACTTATAAAAAATTTTTT [XGTACX_site1249]”, the “gcPBM binding intensity (ln)” value is 8.26 ± 0.35.

For the origin of these results see the supplement of paper PMC11417369.
